According to PubChem BioAssay AID588855 (National Center for Advancing Translational Sciences (NCATS), 2011):
Out of some 410,000 compounds screened, about 5,000 (1.2%) were called active. The inconclusive results got no clear call from the source; some entries with a clear call stand among them for comparison. The call rests on the fitted dose curve; in most records, active means well fitted inhibition curve with a large enough effect; inconclusive means small, poorly fitted or top-dose-only effect; inactive means no such curve, though single readings can be large or run the other way. Potencies beside an inconclusive call are fits to weak or partial responses and may not hold up.
On the % scale 0 is the no-effect control and ±100 the full control effect; potency means the concentration at half of the fitted maximal effect; tags describe the fitted curve by direction and shape.

Experiment: qHTS for Inhibitors of TGF-b; further: nearly all actives have a fitted effect of over 65% in size
Settings: HepG2 CAGA-GFP TGF-b/SMAD3 reporter, GFP fluorescence, 18 h, TGF-beta stimulated, 500 pg/mL final; series mostly up to 46.1 µM; activity, negative = inhibition: at the top concentration
In short: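 Using HEPG2 CAGA-GFP reporter cells at 1000 cells/well, we pinned test compounds, stimulated with recombinant TGF-beta (500 pg/mL final) and measured total well GFP after 18 h.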
With `Oc1c(C(c2ccccc2Cl)N2CCN(Cc3ccccc3)CC2)sc2nc(-c3ccco3)nn12` (configuration not stated) the Potency was inconclusive: 35.5 µM [inhibitor, single point]. For `Cc1ccc(S(=O)(=O)N2CCN(C(=O)COC(=O)c3cncc(Br)c3)CC2)c(C)c1`, the “activity, negative = inhibition” value was inactive: 12%. With `N#Cc1ccc(OCC(=O)N(C2CCCCC2)C2CCS(=O)(=O)C2)cc1` (configuration not stated) the “activity, negative = inhibition” value was inactive: -6.87%. For `CCCCCCCCCCCCCCCCOC(=O)N1CCN(/[N+]([O-])=N/Oc2ccc([N+](=O)[O-])cc2[N+](C)=O)CC1`, the “activity, negative = inhibition” value was inactive: -2.56%. In the case of `CCCCc1ccc(NC(=O)CSc2nc(=O)n(CCN(C)C)c3c2CCC3)cc1`, the Potency is reported as inconclusive: 35.5 µM [inhibitor, single point]. With `COc1ccc(CNCCC(c2ccc(F)cc2)c2ccc(OC)cc2)cc1` (configuration not stated) the Potency was inconclusive: 22.4 µM [inhibitor, single point]. For `O=C(NC1CCCCC1)c1ccc(CSc2nc3ccncc3n2Cc2ccccc2F)cc1`, the Potency was inconclusive: 15.8 µM [inhibitor, single point]. With `Cc1ccc2nc(N/N=C/c3ccccc3F)nc(-c3ccccc3)c2c1` the “activity, negative = inhibition” value was inactive: 3.2%. With `Cc1ccc(F)cc1C(=O)N1CCCC(c2cc(C(=O)Nc3ccccc3Cl)no2)C1` (configuration not stated) the “activity, negative = inhibition” value was inactive: -7.15%. For `Oc1ccc(NCc2cccs2)cc1`, the Potency was inconclusive: 15.8 µM [inhibitor, partial curve, poor fit]. For `CC(=O)N1N=C(c2ccccc2)CC1c1cn(Cc2ccccc2)c2ccccc12` (configuration not stated), the Potency was inconclusive: 35.5 µM [inhibitor, single point]. In the case of `CCOC(=O)C1(CC2CC2)CCN(Cc2cnc(N(C)C)s2)CC1`, the Potency is reported as inconclusive: 35.5 µM [inhibitor, single point]. In the case of `COc1cccc(CNS(=O)(=O)c2ccc3c(c2)C(C)(C)C(=O)N3C)c1`, the “activity, negative = inhibition” value is reported as inactive: 10.6%. With `O=C(NN=Cc1c(O)ccc2ccccc12)c1ccncc1` the Potency was inconclusive: 5.62 µM [inhibitor, single point]. In the case of `Cc1cccc(N2C(=O)CS/C2=N\NC(=O)c2ccc(Cl)cc2)c1C`, the Potency is reported as inconclusive: 35.5 µM [inhibitor, single point]. For `COc1ccccc1N1CCN(C2CCCN(C(=O)c3ccoc3C)C2)CC1` (configuration not stated), the Potency was inconclusive: 2.82 µM [inhibitor, full curve, poor fit]. In the case of `NC(=O)CC(NC(=O)c1ccc(Br)cc1)c1ccc(N2CCN(c3ccccn3)CC2)c([N+](=O)[O-])c1` (configuration not stated), the Potency is reported as inconclusive: 35.5 µM [inhibitor, partial curve, poor fit]. In the case of `CCN(CC)C(=S)NC(=O)c1cccnc1`, the “activity, negative = inhibition” value is reported as inactive: -7.03%. For `CC(=O)Nc1ccc(Sc2ncccc2C(=O)Nc2cc(Cl)cc(Cl)c2)cn1`, the Potency was inconclusive: 35.5 µM [inhibitor, single point]. With `CC(=O)c1ccc(Nc2cc(C)nc3c(C)cccc23)cc1` the “activity, negative = inhibition” value was inactive: -18.9%. In the case of `COc1cc2sc(-c3ccc(S(C)(=O)=O)cc3)c(C#CCO)c2cc1OC`, the “activity, negative = inhibition” value is reported as inactive: 7.97%. For `Cc1cc(F)ccc1S(=O)(=O)NCC(c1cccnc1)N1CCc2ccccc21` (configuration not stated), the Potency was inconclusive: 10 µM [inhibitor, partial curve]. With `O=C(NCCC(=O)N1CCN(Cc2c(F)cccc2Cl)CC1)c1ccc(Cl)cc1` the Potency was inconclusive: 35.5 µM [inhibitor, single point]. In the case of `CCOc1ccccc1N=C1SCC(C)N1C(=O)C1CCN(c2ncnc3sc(C)c(C)c23)CC1` (configuration not stated), the Potency is reported as inconclusive: 6.31 µM [inhibitor, partial curve]. For `CCOc1ccc(-c2nc(-c3ccccc3)no2)cc1OCC`, the Potency was inconclusive: 3.55 µM [inhibitor, partial curve, poor fit]. With `COc1cccc(C(C)NC(=O)Nc2cccc(C(F)(F)F)c2)c1` (configuration not stated) the Potency was inconclusive: 35.5 µM [inhibitor, single point]. For `COc1cccc(/C=C/C(=O)OCC(=O)Nc2ccc(N3CCOCC3)cc2)c1OC`, the Potency was inconclusive: 3.55 µM [inhibitor, single point]. In the case of `COc1ccc(C2CC(c3cccc(Br)c3)=NN2c2ccc(S(N)(=O)=O)cc2)cc1` (configuration not stated), the Potency is reported as inconclusive: 12.6 µM [inhibitor, partial curve, poor fit]. For `O=C(NC(=S)Nc1nc(-c2ccc([N+](=O)[O-])cc2)cs1)c1ccco1`, the Potency was inconclusive: 0.112 µM [inhibitor, full curve, poor fit]. With `N#Cc1ccccc1OCc1cn(CC(=O)c2ccc(O)cc2)nn1` the “activity, negative = inhibition” value was inactive: -2.54%. With `Cc1ccccc1CNC(=O)c1ccc2c(c1)c(C)c(C)n2C` the “activity, negative = inhibition” value was inactive: -20.1%. For `CN(C)c1ccc(CNC(=O)c2ccc(Cn3c(SCc4ccccc4)nc4cccnc43)cc2)cc1`, the “activity, negative = inhibition” value was inactive: -0.217%. In the case of `O=C(NCc1ccncc1)c1ccc2nc(Cc3ccccc3F)oc2c1`, the Potency is reported as inconclusive: 6.31 µM [inhibitor, full curve]. With `O=C(Nc1ccc(-c2csc(Nc3ccccc3)n2)cc1)c1cccc(C(F)(F)F)c1` the Potency was inconclusive: 35.5 µM [inhibitor, single point]. In the case of `CNCCCCOc1ccccc1-c1ccccc1`, the Potency is reported as inconclusive: 35.5 µM [inhibitor, single point]. In the case of `Oc1[nH]c2ccc(Br)cc2c1N=NC(=S)N1CCOCC1`, the Potency is reported as inconclusive: 0.631 µM [inhibitor, full curve]. In the case of `CCc1ccc(CNC(=O)c2cnc3sc(N4CCCC4)nn3c2=O)cc1`, the Potency is reported as inconclusive: 20 µM [inhibitor, single point]. With `CCC(=O)NCCc1nc2ccccc2n1Cc1ccccc1` the Potency was inconclusive: 6.31 µM [inhibitor, partial curve]. For `CCc1c(C2(O)CCCCC2)[nH]c2ccc(C(F)(F)F)cc12`, the Potency was active: 11.2 µM. In the case of `COc1ccc(S(=O)(=O)N2CCN(c3cccc(C)c3C)CC2)cc1`, the Potency is reported as inconclusive: 12.6 µM [inhibitor, partial curve, poor fit]. With `CC(C)(C)c1ccc(C(O)c2ncc(-c3ccc(F)cc3)[nH]2)cc1` (configuration not stated) the Potency was inconclusive: 35.5 µM [inhibitor, single point]. In the case of `Cn1cc(C(=O)c2ccc(Cl)cc2Cl)cc1C(=O)N/N=C(\N)COc1cccc(C(F)(F)F)c1`, the Potency is reported as inconclusive: 22.4 µM [inhibitor, single point]. In the case of `COc1ccccc1-n1cc2c([N+](=O)[O-])cc([N+](=O)[O-])cc2n1`, the “activity, negative = inhibition” value is reported as inactive: -1.48%. With `CN(C)c1cccc(NC(=O)C2Cc3c(-c4ccc(Cl)cc4)ccnc3O2)c1` (configuration not stated) the Potency was inconclusive: 35.5 µM [inhibitor, single point]. With `Cc1cc(C)cc(NC(=O)Cn2c(-c3cncs3)nc3ccccc32)c1` the Potency was inconclusive: 14.1 µM [inhibitor, partial curve, poor fit]. With `COC(=O)c1cccc(CSc2nc3ccccc3[nH]2)c1` the “activity, negative = inhibition” value was inactive: -11.2%. With `Cc1ccc(-c2ccc(/C=N\NC(=O)C3C(=O)NCC3c3ccccc3)o2)cc1Cl` (configuration not stated) the Potency was inconclusive: 22.4 µM [inhibitor, single point]. In the case of `CCc1cccc(NC(=O)CCc2nc3sc4c(c3c(=O)[nH]2)CCCC4)c1`, the Potency is reported as inconclusive: 35.5 µM [inhibitor, partial curve, poor fit]. For `CN(C)c1ccc(C=NNC(=O)c2cccc3ccccc23)c(Cl)c1`, the Potency was inconclusive: 7.94 µM [inhibitor, partial curve]. With `Nc1c(Cl)ncnc1N1CCCC1` the “activity, negative = inhibition” value was inactive: 19%. For `COc1ccc(NC(=O)CN(C)C(=O)CCNS(=O)(=O)c2ccc(Br)cc2)cc1`, the “activity, negative = inhibition” value was inactive: -8.08%. For `O=C(c1ccc2c3c(cccc13)CC2)C1CCCN(C(=O)c2cccnc2)C1` (configuration not stated), the Potency was inconclusive: 35.5 µM [inhibitor, single point]. With `O=C(NC1CCCC1)c1cc(-c2ccc(Cl)cc2Cl)on1` the “activity, negative = inhibition” value was inactive: -2.53%. For `CCCCCn1c(NCc2ccc(OC)cc2)nc2ccccc21`, the Potency was active: 12.6 µM. In the case of `CC1CCc2c(sc(Nc3nc4c(F)cccc4s3)c2C(N)=O)C1` (configuration not stated), the Potency is reported as inconclusive: 3.16 µM [inhibitor, partial curve, poor fit]. For `C[C@]12c3[nH]c4ccccc4c3CCN1C(=O)C(CC(=O)NCc1ccco1)C[C@@H]2C(=O)N1CCCCC1` (some centres not stated), the “activity, negative = inhibition” value was inactive: -15.7%. With `Cc1[nH]c2ccc(C(=O)N3CCN(c4ccccc4Cl)CC3)cc2c1C` the Potency was inconclusive: 35.5 µM [inhibitor, single point]. In the case of `CCc1ccc(N2CC(C(=O)N/N=C/c3ccccc3)CC2=O)cc1` (configuration not stated), the Potency is reported as inconclusive: 0.562 µM [inhibitor, full curve, poor fit]. In the case of `CCOC(=O)C1=CN(Cc2ccc(Br)cc2)S(=O)(=O)NC1C` (configuration not stated), the Potency is reported as inconclusive: 12.6 µM [inhibitor, single point]. For `Nc1ncnc2c1ncn2[C@@H]1O[C@H](CNCc2ccccc2OCc2ccc(Cl)cc2Cl)[C@@H](O)[C@H]1O`, the “activity, negative = inhibition” value was inactive: -27.3%. With `Cc1cccc(N(C)c2nc3ccccc3c3nnc(C)n23)c1` the Potency was inconclusive: 12.6 µM [inhibitor, single point]. For `CCOc1ccc(C(=O)Cn2c(=O)n3nc(CCn4nc(C)cc4C)nc3c3cc(OC)c(OC)cc32)cc1`, the “activity, negative = inhibition” value was inactive: -0.103%. With `COc1cc(NC(=O)c2cc(C3CC3)nc3c2c(C)nn3-c2ccccc2)cc(OC)c1` the “activity, negative = inhibition” value was inactive: 6.51%. In the case of `COc1ccc(CN2CCc3c(c(=O)n4ncc(C(=O)N5CCN(c6ccccc6OC)CC5)c4n3C)C2)cc1`, the Potency is reported as inconclusive: 2.24 µM [inhibitor, partial curve, poor fit]. For `COc1c(O)cc2oc(-c3ccc(O)c(O)c3)cc(=O)c2c1O`, the Potency was inconclusive: 7.94 µM [inhibitor, partial curve, poor fit]. In the case of `N#Cc1c(Nc2ccccc2)[n+]([O-])c2ccc(Cl)cc2[n+]1[O-]`, the Potency is reported as inconclusive: 35.5 µM [inhibitor, single point]. With `CCN(CC)C(=O)COc1coc(CN2CCN(c3ccccc3)CC2)cc1=O` the “activity, negative = inhibition” value was inactive: -6.42%.
